The full ranking holds about 81,000 sequences; the median of “one-hybrid fitness for binding parS DNA” is about -0.17, and the highest 2% start at about 0.51. Some of the results follow.
B1: Caulobacter ParB omega fusion; a variant is named by its letters at X, in order, B8GW30 (parent)
chain: MESVVVGEPGMSEGRRGLGRGLSALLGEVDAAPAQAPGEQLGGSREAPIEILQRNPDQPRRTFREEDLEDLSNSIREKGVLQPILVRPSPDTAGEYQIVAGERAWRAAQRAGLKTVPIMVRELDDLAVLEIGIIENVQRADLNVLEEALSYKVLMEKFERTQENIAQTIGKSXSHVANXMRLLXLPDEVQSYLVSGELTAXHARAIAAAADPVALAKQIIEGGLSVRETEALARKAPNLSAGKSKGGRPPRVKDTDTQALESDLSSVLGLDVSIDHRGSTGTLTITYATLEQLDDLCNRLTRGI

Variants of: B1
Experiment: one-hybrid fitness for binding parS DNA (scaled: cognate 1, non-cognate 0); higher = stronger binding
Conditions: with parS DNA site
How it was run: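 Pre- and post-selection plasmids were Illumina-sequenced, three replicate libraries were pooled, and any variant with under 10 reads was removed. The libraries were Caulobacter ParB with four specificity codons randomised, selected in E. coli USO through a HIS3 reporter whose site is 19 bp from the promoter. Cells grew 48 hours at 37°C on M9 without histidine, with 0.1 mM IPTG and 5 mM 3-AT. Fitness is the log change in variant-to-wild-type read ratio, rescaled against cognate and non-cognate.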

one-hybrid fitness for binding parS DNA, 0.226:
HCVT

one-hybrid fitness for binding parS DNA, ≤ 0.2:
WNLV
ATCT
DRMN
AWSI
YPNR
LSVL
QSWE
HYGY
WTFA
DYCC
TRAM
WRLA
HALR
ERPG
IDKG
PAGQ
QPQR
TFNP
ILRI
QPPT
SHLP
WAPK
NLPK
GALV
TTPD
SQKC
NDDI
CPTG
VKRG
VQEC
NLPW
TCQE
HWSM
RFHH
GETL
TMYS
QHHS
MRFR
PEQS
KSNV
QLWM
VEES
PLCT
WTSL
YSQR
TMCY
CLSN
NSDR
LRPQ
SPVW
QYQR
VTKF
HTMN
IGCT
HCFR
PHGQ
TFTN
ISNM
VRQF
HSNF
NIIF
GHHW
VRKQ
SCTP
TGTV
KRLD
AIGS
KRCT
LKSM
EGLS
LAHI
ACHR
YRPG
NPQR
HRYQ
YQEY
KIST
LDAI
EISS
TSEL
NPGT
VNKG
NLLI
EKPW
QHCN
GDAP
AHLR
RCDL
CTNL
LRGV
DSIR
IVKG
DEAR
FKLC
CCDT
RDYM
ETDC
EIAQ
VIQL
QNMT
LTVH
DCKG
QFVD
LDHD
QVAM
DVWC
QYRD
LVLA
QFAH
ITLS
YCIT
LEPA
AHDE
ETNV
GASN
NLLN
QVCR
RVQL
SQTT
QCSA
QMNP
NNVM
QIYY
PDHS
WLFE
VLKE
QFGT
ANPK
QCNK
RPMM
QIFC
QLCH
DFMV
NARS
LLPC
NRAR
WRDS
HDPG
TLLG
MSHR
NTME
AGDG
GMIV
MTDR
VTDS
EIPR
WMFG
VDGS
DRKA

one-hybrid fitness for binding parS DNA, 0.204:
RIGQ

one-hybrid fitness for binding parS DNA, 0.214:
RHEM

one-hybrid fitness for binding parS DNA, 0.217:
RELG

— a collection of fitness landscapes (doi:10.1016/j.celrep.2020.107928)
